# Laboratory results reported in the supplement of paper PMC3334620.
# In all, about 33,000 sequences were measured (“E-score (-0.5 to 0.5)”: median about -0.011, highest 2% from about 0.28 on). This is one part of the list.
# Molecular target: T1, Gcr1 (UniProt P07261)
# T1 sequence: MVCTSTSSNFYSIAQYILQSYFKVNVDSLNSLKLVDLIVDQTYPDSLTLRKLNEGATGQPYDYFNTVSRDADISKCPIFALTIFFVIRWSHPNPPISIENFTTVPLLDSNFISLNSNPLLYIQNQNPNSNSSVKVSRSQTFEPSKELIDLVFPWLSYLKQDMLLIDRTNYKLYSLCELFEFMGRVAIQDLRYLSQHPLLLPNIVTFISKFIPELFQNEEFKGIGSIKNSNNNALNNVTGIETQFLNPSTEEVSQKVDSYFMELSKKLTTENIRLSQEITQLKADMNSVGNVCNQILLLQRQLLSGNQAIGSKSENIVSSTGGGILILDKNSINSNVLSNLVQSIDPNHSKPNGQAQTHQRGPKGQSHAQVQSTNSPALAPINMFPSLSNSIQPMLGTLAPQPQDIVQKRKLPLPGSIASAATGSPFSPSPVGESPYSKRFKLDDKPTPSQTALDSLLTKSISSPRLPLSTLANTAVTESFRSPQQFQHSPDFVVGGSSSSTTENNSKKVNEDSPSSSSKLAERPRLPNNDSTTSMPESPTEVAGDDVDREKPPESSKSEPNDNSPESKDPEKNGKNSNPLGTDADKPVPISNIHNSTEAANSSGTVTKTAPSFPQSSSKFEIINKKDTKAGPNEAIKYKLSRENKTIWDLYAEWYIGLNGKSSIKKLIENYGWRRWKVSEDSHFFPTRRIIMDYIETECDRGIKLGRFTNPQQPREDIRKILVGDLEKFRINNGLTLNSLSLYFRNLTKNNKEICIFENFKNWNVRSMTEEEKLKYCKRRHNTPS
# Assay: PBM E-score (8-mer binding enrichment) (E-score (-0.5 to 0.5)); higher = stronger / more preferred TF binding; most listed sequences are background and not binding sites
# Details: protein concentration: 100 nM; construct: GST-full length
# How it was run: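 Universal all-10-mer Agilent arrays, fresh or stripped once, were converted to double-stranded form by primer extension. GST-tagged yeast transcription factors from PURExpress in vitro transcription/translation, full-length or DNA-binding domain only, were applied at about 100-200 nM and detected with fluorescent anti-GST. After masliner normalisation, the Universal PBM Analysis Suite scored each ungapped eight-base word together with its reverse complement by E-score.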
row,Sequence,PBM E-score
1,CGTAAGCC,-0.0549
2,AAGCGACG,-0.101
3,AACTCAAA,0.0151
4,ATCTGTAG,-0.238
5,TACACGGA,0.0181
6,GCCACAGC,-0.196
7,GCAGTACC,-0.0855
8,CAGGGCAC,0.12
9,ATGGGGAG,0.081
10,GGTTTCGA,-0.0289
11,AGATTGTA,-0.193
12,AAAAAGCC,-0.0972
13,TATCTAAA,0.0155
14,TGACGAAA,0.0592
15,CTGTACAA,0.0328
16,TACGGAGA,-0.0406
17,GATCGCGA,0.133
18,TAACGCGA,-0.0611
19,GCGCTCTA,0.0028
20,CCGGTAAG,-0.072
21,AAAACCTA,0.0603
22,CGCCGCCA,0.181
23,CCGTACCC,-0.133
24,ACCTCTAT,0.205

row,Sequence,PBM E-score
1,ACTGACTA,-0.234
2,AAGCCGAA,0.185
3,GTTTAATA,-0.0345
4,TCCGGACA,-0.105
5,TACCTATA,0.131
6,AATCCAAG,0.0564
7,AAGTAAAA,0.0303
8,AAGTGTCA,-0.148
9,GCACACAA,-0.212
10,GCCACTAA,0.366
11,ACTCGGCA,-0.0171
12,GCTCGTAA,0.058
13,AACGCTGC,0.0719
14,ATGATACC,-0.142
15,ACAAAAGC,-0.0567
16,GTGCTCCA,-0.136
17,CAAATGTG,0.0323
18,AGGGAGAT,-0.297
19,AAGTGAAC,-0.0708
20,CTGACAGA,-0.0772
21,CGGAGACC,0.0935
22,GTACCTTA,0.0846
23,CAATGCAA,-0.169
24,GCCTAACA,-0.0744

row,Sequence,PBM E-score
1,ATTGGAAA,0.0513
2,AGTAAAAT,0.136
3,TATCAATA,0.107
4,AACCACAC,0.0626
5,CGGGCTCA,-0.0916
6,AAGCATCC,0.404
7,TCACGGAA,-0.0669
8,AGCCGCCA,0.208
9,CTATTAAG,-0.0237
10,CGTCAGAG,-0.107
11,GCCGTAGC,-0.0796
12,AGGCGATA,-0.0956
13,GACGACAA,0.00369
14,AAACGCTA,-0.0548
15,GTGTTACA,-0.0977
16,CAATACAC,-0.1
17,ACCCGAGA,0.0779
18,CGGTGAGA,-0.101
19,AGACCCGG,-0.0493
20,ACTGTGCT,-0.231
21,CCTACAAA,0.127
22,GCACCACC,-0.0802
23,ATGTCCCG,-0.183
24,CACTGGCG,0.126

row,Sequence,PBM E-score
1,GGGCCTAC,-0.25
2,CCGGTTGC,0.317
3,AATGGCGA,-0.106
4,ACACCGTG,-0.197
5,ACATTAGA,-0.104
6,CCTAATAG,0.15
7,CGTTGCAG,-0.178
8,GGTGTGAA,-0.0292
9,CCTTTGCC,-0.218
10,AATTCGTA,0.221
11,GAGAGCGA,-0.249
12,CACACATG,-0.123
13,GTGCTTTA,0.0235
14,CAAGATGG,0.0397
15,CCACTGCA,0.0682
16,GGTTTTAA,0.0767
17,AACATGCA,-0.106
18,AGACCCTG,-0.105
19,TAATCGAA,0.0134
20,CCTAGCTC,-0.0989
21,CCAACCCG,-0.196
22,GGCTTGAA,-0.2
